Test results reported in the supplement of paper PMC3334620.
The full ranking holds about 33,000 sequences; the median of “E-score (-0.5 to 0.5)” is about -0.017, and the highest 2% start at about 0.3. Some of the results follow.

molecular target: T1, Sut1 (UniProt P53032); test: PBM E-score (8-mer binding enrichment) (E-score (-0.5 to 0.5)); higher = stronger / more preferred TF binding; most listed sequences are background and not binding sites; settings: protein concentration: 200 nM; construct: GST-full length
T1 sequence: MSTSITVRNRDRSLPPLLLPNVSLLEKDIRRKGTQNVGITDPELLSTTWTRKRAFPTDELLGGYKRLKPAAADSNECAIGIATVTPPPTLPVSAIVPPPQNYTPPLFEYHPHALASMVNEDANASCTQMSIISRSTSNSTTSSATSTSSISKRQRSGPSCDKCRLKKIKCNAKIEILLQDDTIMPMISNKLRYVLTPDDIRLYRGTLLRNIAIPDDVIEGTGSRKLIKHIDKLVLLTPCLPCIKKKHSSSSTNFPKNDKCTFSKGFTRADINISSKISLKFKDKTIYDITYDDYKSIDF
Outline: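 Using PURExpress in vitro transcription/translation, GST-tagged yeast transcription factors were made in full-length or DNA-binding-domain form. These were applied at about 100-200 nM to double-stranded universal all-10-mer Agilent arrays, and bound protein was detected with fluorescent anti-GST. Scans were normalised with masliner before the Universal PBM Analysis Suite assigned E-scores to ungapped eight-base words pooled with their reverse complements.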

| Sequence | PBM E-score |
| --- | --- |
| ATTCAGAA | 0.12 |
| CGGCACTC | 0.0659 |
| CACGATCC | 0.00496 |
| ACTATTCA | 0.214 |
| CGGTGCAC | -0.267 |
| CTATAGCC | -0.195 |
| AAGCGCTT | 0.162 |
| CATGGCCC | -0.197 |
| ATCCGGTG | 0.0918 |
| CCGTATAC | 0.105 |
| CCGAGACA | 0.0464 |
| TCCGTTAA | 0.326 |
| CAACCGCC | -0.161 |
| TAGGTTAA | 0.11 |
| GGGACAAA | -0.142 |
| CTCCAGAC | -0.0572 |
| CGGTTCCC | -0.0494 |
| CTTATGTC | 0.0332 |
| GCCTAACC | -0.116 |
| TATGTGAA | -0.0499 |
| CAAAGTCC | 0.282 |
| TAGAGTAA | 0.184 |
| GTTGGCAA | -0.0298 |
| AGATCAAG | -0.00203 |

| Sequence | PBM E-score |
| --- | --- |
| AAGGTTCG | 0.13 |
| ACGTATCA | 0.0656 |
| CCGTGTCC | 0.053 |
| AACTAATA | 0.324 |
| CCAGGTAA | -0.0542 |
| GCACATAA | -0.0947 |
| CCCCTTCG | -0.348 |
| CAGCGCCG | -0.155 |
| CAGCAGAC | -0.264 |
| CGGAGAAA | 0.391 |
| AACCTGCC | -0.0894 |
| CCAGGTAC | -0.31 |
| CGAGTAGA | -0.0364 |
| ACTTGATG | 0.0275 |
| ACAAAATC | 0.204 |
| CAAAGCCG | -0.00976 |
| GGGAATCA | -0.126 |
| ACAAAAGT | 0.0749 |
| TAAAGGCA | 0.136 |
| AAGGGACG | -0.245 |
| GATGGGGA | -0.1 |
| AACCACAT | 0.0288 |
| GAAGTAGC | -0.0793 |
| GGCCTTTA | -0.125 |

| Sequence | PBM E-score |
| --- | --- |
| GTGGCCAA | -0.141 |
| GGGTTGAA | -0.0843 |
| ATCAGTCC | -0.204 |
| CCTTAAGG | 0.0101 |
| CGCATACG | 0.0145 |
| ACCTGCGT | 0.0426 |
| CGCTAGGA | -0.00382 |
| TCTCCTCA | -0.0295 |
| CCGAGGTC | 0.209 |
| AAGTAAGC | 0.0988 |
| ATCCTTAA | -0.0598 |
| GGAGTCTA | 0.182 |
| GGCGAGTA | -0.166 |
| ATATCTCA | 0.279 |
| GAGGCTGA | -0.131 |
| ACCCACGA | -0.222 |
| GTGACTAA | 0.055 |
| GAGTCCGA | 0.476 |
| GCCTAAGA | -0.197 |
| TACGAGTA | 0.121 |
| CTCCAGCC | -0.155 |
| CTCGTCCC | -0.169 |
| ACCTTTCG | 0.0504 |
| ATTATTTG | 0.319 |

| Sequence | PBM E-score |
| --- | --- |
| GTGGGGGA | -0.385 |
| GATATAAC | 0.206 |
| CTTCCCAA | -0.0742 |
| CGATTGGC | 0.0185 |
| ATCACCCG | -0.204 |
| GTTCTGGA | 0.047 |
| ACAGGTAA | 0.0408 |
| AATGGATG | -0.00809 |
| AATGTTTC | 0.146 |
| ACACAACA | 0.128 |
| ACAAGTAT | 0.135 |
| AAGAGTGC | -0.02 |
| TCAAGGAA | -0.127 |
| AATCGCCA | -0.0545 |
| AGTGGTAT | 0.0378 |
| TCCCGAAA | 0.0428 |
| AGACTTAC | -0.0551 |
| ATGCTCCG | 0.262 |
| ACCACCCA | 0.00946 |
| AATTTGGT | 0.166 |
| GACGCGGC | -0.0396 |
| CAAGCGGC | -0.0127 |
